Experimental data taken from the BET-seq Pho4 binding data (Le et al. 2018).
This is one part of the list. Values were computed here from the reads of four pooled replicates and scatter widely.

biological target: T1, Pho4 (S. cerevisiae) (UniProt P07270); experiment: relative binding free energy (BET-seq); higher = weaker binding; settings: reference: library average
T1 sequence: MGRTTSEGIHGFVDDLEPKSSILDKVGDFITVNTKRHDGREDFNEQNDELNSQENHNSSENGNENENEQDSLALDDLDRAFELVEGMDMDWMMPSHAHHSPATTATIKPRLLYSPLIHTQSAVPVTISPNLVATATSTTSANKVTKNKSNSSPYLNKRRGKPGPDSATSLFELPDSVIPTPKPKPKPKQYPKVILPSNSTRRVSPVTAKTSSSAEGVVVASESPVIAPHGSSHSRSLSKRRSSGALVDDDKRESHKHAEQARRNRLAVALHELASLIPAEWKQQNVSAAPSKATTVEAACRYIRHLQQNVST

Sequence | relative binding free energy
TAACTCACGTGAGGGG | 0.34 kcal/mol
GTAAGCACGTGGAGGA | 0.04 kcal/mol
TTGCGCACGTGAGAGT | 0.17 kcal/mol
CTGTACACGTGGGGCG | 0.01 kcal/mol
GATAGCACGTGGGAAT | 0.04 kcal/mol
TTGGTCACGTGATGTG | 0.26 kcal/mol
GTCGGCACGTGATGTA | 0.07 kcal/mol
TTGAGCACGTGGTGAC | -0.02 kcal/mol
TTATACACGTGTTTCG | -0.02 kcal/mol
GGGAGCACGTGACGTT | 0.1 kcal/mol
ATGCTCACGTGGTATG | 0.3 kcal/mol
GTTTTCACGTGACATA | 0.39 kcal/mol
CGTGGCACGTGGGGGC | -0.21 kcal/mol
TCTATCACGTGATGGT | 0.27 kcal/mol
TAAGTCACGTGTAGAG | 0.05 kcal/mol
GGGCGCACGTGTTGGA | 0.02 kcal/mol
ACTGGCACGTGTCGGT | 0.02 kcal/mol
GTGATCACGTGTTTGT | 0.16 kcal/mol
CGCGTCACGTGTTGTT | 0.09 kcal/mol
GATTGCACGTGAGTAT | 0.28 kcal/mol
ATGATCACGTGTATGG | 0.2 kcal/mol
TGATTCACGTGAATGA | 0.58 kcal/mol
CTGATCACGTGTTTGA | 0.01 kcal/mol
TGTCACACGTGGGGTT | -0.09 kcal/mol
CGTGTCACGTGGTTGA | -0.04 kcal/mol
ATTGGCACGTGTAGAT | -0.05 kcal/mol

Sequence | relative binding free energy
CTTAACACGTGTGGTA | 0.01 kcal/mol
TTTTTCACGTGTGTGT | 0.32 kcal/mol
ACGGACACGTGGCGGG | 0.01 kcal/mol
ATTTGCACGTGTACGA | 0.13 kcal/mol
AAAGGCACGTGGATAG | -0.14 kcal/mol
AATTACACGTGATCTT | 0.26 kcal/mol
TTCGTCACGTGGAGTG | 0.11 kcal/mol
TATTTCACGTGCAGTG | 0.14 kcal/mol
AGGAACACGTGGGGGG | -0.04 kcal/mol
TTACGCACGTGTCTGT | -0.04 kcal/mol
GGGGACACGTGGCCGT | -0.09 kcal/mol
GTAGTCACGTGGAGTG | 0.23 kcal/mol
TGGCGCACGTGGACGG | -0.07 kcal/mol
TCGAACACGTGGGTGT | -0.14 kcal/mol
AAATACACGTGGTAGG | 0.05 kcal/mol
TACGTCACGTGATGGG | 0.06 kcal/mol
AGGGGCACGTGCTAAT | -0.15 kcal/mol
AGGCCCACGTGGGGGT | -0.23 kcal/mol
TAGTTCACGTGCGGTG | 0.11 kcal/mol
GGCTTCACGTGATGAG | 0.33 kcal/mol
GTATGCACGTGTGAAG | 0.16 kcal/mol
TATCACACGTGTGTGC | 0.18 kcal/mol
TAGTGCACGTGTGCAG | -0.15 kcal/mol
GTATACACGTGGATTG | 0.11 kcal/mol
GGTGACACGTGATTAT | 0.12 kcal/mol
ACTGTCACGTGTTGCG | 0.16 kcal/mol

Sequence | relative binding free energy
GTGTTCACGTGTAGGG | 0.26 kcal/mol
CGATACACGTGTGGGG | 0.06 kcal/mol
CCAGGCACGTGCGTGG | -0.1 kcal/mol
AAGTTCACGTGGTATG | 0.1 kcal/mol
ATAAACACGTGGTTAT | -0.03 kcal/mol
AAGATCACGTGGAGTG | 0.27 kcal/mol
TGTCGCACGTGGCAGG | -0.12 kcal/mol
TGGCGCACGTGAGGAG | 0.12 kcal/mol
GTAGGCACGTGATTAG | -0.03 kcal/mol
GATGGCACGTGGAGTC | 0.11 kcal/mol
GGGGGCACGTGTCCGG | -0.08 kcal/mol
GTTTTCACGTGGCTCT | 0.21 kcal/mol
CATGTCACGTGATGTT | 0.24 kcal/mol
TGAATCACGTGTGTCA | 0.3 kcal/mol
TGCGCCACGTGGCGGT | -0.24 kcal/mol
AGGTGCACGTGGCGCT | -0.28 kcal/mol
TAGAGCACGTGGGGCC | -0.19 kcal/mol
TTCTTCACGTGTAGCT | 0.33 kcal/mol
AGTGTCACGTGGTATG | -0.07 kcal/mol
AGGCTCACGTGTCTTG | 0.29 kcal/mol
ACTGGCACGTGGGGAG | -0.16 kcal/mol
TGTTGCACGTGTGTAA | -0.03 kcal/mol
TATGTCACGTGGTAGA | 0.05 kcal/mol
AGTGGCACGTGGTTCT | -0.1 kcal/mol
TTATGCACGTGTACCT | 0.1 kcal/mol
TTGTTCACGTGGTTAT | 0.33 kcal/mol

Sequence | relative binding free energy
TTGACCACGTGGTGTA | -0.17 kcal/mol
TGTACCACGTGGTGCG | -0.22 kcal/mol
ACGAGCACGTGTGGTA | -0.07 kcal/mol
GGGGTCACGTGATTAC | 0.34 kcal/mol
TGATGCACGTGAATTT | 0.24 kcal/mol
TAATGCACGTGATCGG | 0.01 kcal/mol
TGGTGCACGTGGATGT | 0.05 kcal/mol
ATGAACACGTGCTGGG | -0.04 kcal/mol
TTTTTCACGTGTAGAA | 0.32 kcal/mol
GTGTGCACGTGAACAG | 0.22 kcal/mol
GTTAACACGTGGTTGA | -0.15 kcal/mol
TATTTCACGTGTCTTA | 0.24 kcal/mol
TGGTCCACGTGTATAG | 0.07 kcal/mol
TGTGCCACGTGTAAAG | 0.03 kcal/mol
AGGATCACGTGTATAG | 0.11 kcal/mol
TGTGTCACGTGCATTG | 0.05 kcal/mol
TGAAGCACGTGCGGGC | -0.07 kcal/mol
AGGAGCACGTGGGTCG | -0.06 kcal/mol
GGGTTCACGTGCAGTA | 0.19 kcal/mol
CATTGCACGTGTGGCT | -0.04 kcal/mol
GTCTTCACGTGCGCGG | 0.41 kcal/mol
TGGTACACGTGATAAG | 0.12 kcal/mol
ATTGTCACGTGTGAAC | 0.3 kcal/mol
GTTTACACGTGATTGG | 0.36 kcal/mol
TGGACCACGTGTTGAG | 0.06 kcal/mol
GGTGGCACGTGGCGAG | -0.17 kcal/mol

Sequence | relative binding free energy
GAGGACACGTGCGGTA | 0.09 kcal/mol
TGATGCACGTGATAGC | 0.08 kcal/mol
GGGGACACGTGTAGTT | 0.28 kcal/mol
GTCTTCACGTGCTGTT | 0.24 kcal/mol
AATTACACGTGTGGTG | 0.05 kcal/mol
TTCTTCACGTGATGGG | 0.38 kcal/mol
CGTGTCACGTGATTTG | 0.28 kcal/mol
CGGTTCACGTGTGTTG | 0.27 kcal/mol
CTGTGCACGTGAGCGG | 0.13 kcal/mol
CGGAGCACGTGTATGG | -0.2 kcal/mol
TACATCACGTGGGCGT | 0.08 kcal/mol
TCTGTCACGTGGGTCG | 0.05 kcal/mol
GTCTTCACGTGGGGGG | 0.2 kcal/mol
GGGGTCACGTGGGACC | 0.12 kcal/mol
GCTGGCACGTGAGTAG | 0.17 kcal/mol
ATCCGCACGTGGGGTT | -0.21 kcal/mol
ATGAGCACGTGTTCTT | 0.07 kcal/mol
CTAATCACGTGGTGAG | 0.17 kcal/mol
ATTAACACGTGTTGTA | -0.09 kcal/mol
GTGGGCACGTGTCGTA | -0.08 kcal/mol
TAGTGCACGTGAGGAG | 0.2 kcal/mol
TAAAACACGTGGGTGG | -0.21 kcal/mol
CGGGGCACGTGATCGT | -0.13 kcal/mol
TGCTACACGTGTGGGG | 0.07 kcal/mol
TGCGTCACGTGGAGCG | 0.18 kcal/mol
GTTGACACGTGGCTGA | 0.04 kcal/mol

Sequence | relative binding free energy
GAGGTCACGTGATTTA | 0.19 kcal/mol
AGAAGCACGTGGGGAA | -0.29 kcal/mol
GTCTTCACGTGGTTTA | 0.29 kcal/mol
AGTGCCACGTGTATGG | -0.03 kcal/mol
AATTTCACGTGTTCAT | 0.22 kcal/mol
GGTTACACGTGTTCAT | 0.18 kcal/mol
GTTATCACGTGAAGCG | 0.43 kcal/mol
ATTTTCACGTGCATAG | 0.23 kcal/mol
TAATTCACGTGAGTCT | 0.27 kcal/mol
TTGTTCACGTGGCTGA | 0.32 kcal/mol
TACTGCACGTGATGGG | 0.02 kcal/mol
TAGTTCACGTGTGGAA | 0.17 kcal/mol
CTTGTCACGTGTGGTA | 0.13 kcal/mol
CTGTTCACGTGTTGCA | 0.33 kcal/mol
CGTGGCACGTGGGCCT | -0.29 kcal/mol
TGGGACACGTGTAGGT | 0.12 kcal/mol
GGCGCCACGTGGTGGG | -0.13 kcal/mol
TGACACACGTGGTCGT | 0.06 kcal/mol
TGGCTCACGTGTGGAA | 0.28 kcal/mol
GAGTGCACGTGAGGTA | 0.21 kcal/mol
CAGGTCACGTGAGTTA | 0.26 kcal/mol
GTTAACACGTGAGTTT | 0.33 kcal/mol
CTTTACACGTGGGGCG | 0.02 kcal/mol
ATCTTCACGTGAAGGT | 0.53 kcal/mol
AACTGCACGTGGAGGG | 0.07 kcal/mol
AGTGACACGTGTTCAT | 0.13 kcal/mol

Sequence | relative binding free energy
CGGATCACGTGGGGCT | 0.07 kcal/mol
TGGTACACGTGTAGGG | 0.15 kcal/mol
TGAGGCACGTGGGATG | -0.14 kcal/mol
TTTAGCACGTGATGCT | 0.07 kcal/mol
GGCTTCACGTGGGAGA | 0.17 kcal/mol
GTGCGCACGTGGCGGT | -0.17 kcal/mol
AGCCGCACGTGCGGGG | -0.15 kcal/mol
TTGGCCACGTGGGGGC | -0.18 kcal/mol
ATGGTCACGTGGATCA | 0.15 kcal/mol
CGCGGCACGTGCAGGG | -0.09 kcal/mol
TGATGCACGTGGGGCT | -0.12 kcal/mol
GCTGACACGTGGTAGT | 0.02 kcal/mol
TGTGACACGTGAGTTG | 0.08 kcal/mol
CTGTTCACGTGAGTGA | 0.21 kcal/mol
TAGGGCACGTGTTGGG | -0.04 kcal/mol
TGGCGCACGTGGAGGT | -0.06 kcal/mol
ATTTGCACGTGTACTA | 0.05 kcal/mol
GTAAGCACGTGTAAGG | 0.09 kcal/mol
GTTAACACGTGAGGTG | 0.46 kcal/mol
GGTGGCACGTGCATGA | -0.02 kcal/mol
AGTGGCACGTGAAAGA | 0.12 kcal/mol
AGTGTCACGTGAGAGT | 0.17 kcal/mol
TAGAACACGTGGATAT | 0.26 kcal/mol
GGGCTCACGTGTTTCT | 0.42 kcal/mol
GTATGCACGTGATGTT | 0.18 kcal/mol
TTCTGCACGTGAGATT | 0.3 kcal/mol

Sequence | relative binding free energy
CAGGGCACGTGGGTGG | -0.28 kcal/mol
ATGGGCACGTGTTATG | -0.14 kcal/mol
TTTATCACGTGTGCGA | 0.15 kcal/mol
TTTGCCACGTGGTAAT | -0.11 kcal/mol
GGTTCCACGTGGGTCG | -0.04 kcal/mol
ATTTACACGTGGATCT | 0.21 kcal/mol
TTAGACACGTGGTAGA | 0.05 kcal/mol
GGTCTCACGTGTGACT | 0.46 kcal/mol
TGCCTCACGTGTTTTT | 0.21 kcal/mol
TGGGACACGTGGGTCG | -0.15 kcal/mol
ATGGGCACGTGCTGAG | -0.22 kcal/mol
TTTAGCACGTGGCGCA | -0.18 kcal/mol
TTCAACACGTGTAGGG | -0.09 kcal/mol
TGGTTCACGTGACGTC | 0.35 kcal/mol
TGGTCCACGTGATTTT | 0.19 kcal/mol
TGGAGCACGTGTCAAG | -0.11 kcal/mol
TTTTCCACGTGTGTCG | 0.08 kcal/mol
GTGGTCACGTGTCATA | 0.04 kcal/mol
GTCATCACGTGGGCGT | 0.01 kcal/mol
GTCGACACGTGGGCGT | -0.1 kcal/mol
GGAGTCACGTGTGGAA | 0.14 kcal/mol
GGACACACGTGGGGGG | -0.2 kcal/mol
GGATTCACGTGCGGAG | 0.19 kcal/mol
GTTTCCACGTGGGTAA | 0.08 kcal/mol
TAATTCACGTGGCAGT | 0.14 kcal/mol
GGTTCCACGTGGTGGT | 0.05 kcal/mol

Sequence | relative binding free energy
GAGTGCACGTGTGGGA | 0.13 kcal/mol
TGGGACACGTGGTCTA | -0.07 kcal/mol
ACGGTCACGTGGAGGA | 0.21 kcal/mol
TAAAGCACGTGGTGTG | -0.24 kcal/mol
CACGTCACGTGGTGGG | -0.05 kcal/mol
GGAAGCACGTGTGATT | -0.03 kcal/mol
TGGGCCACGTGCTAGT | -0.15 kcal/mol
TAAGGCACGTGATTGG | -0.1 kcal/mol
TATTACACGTGAAGTA | 0.3 kcal/mol
GTTCTCACGTGGTAAT | 0.16 kcal/mol
TGGTACACGTGGGTAA | -0.09 kcal/mol
CGCGTCACGTGCTGGT | 0.06 kcal/mol
TTACTCACGTGGGTGA | 0.21 kcal/mol
TTGGTCACGTGCCAGG | 0.04 kcal/mol
ATGGACACGTGATTAT | 0.19 kcal/mol
ACGATCACGTGGGGTT | 0.09 kcal/mol
GGGGGCACGTGTTTTT | 0.05 kcal/mol
AATGTCACGTGTGAGG | 0.09 kcal/mol
GCAGGCACGTGGTGCG | -0.24 kcal/mol
TTGGTCACGTGTGCTA | 0.07 kcal/mol
AAGGACACGTGGGGGC | -0.09 kcal/mol
TGGGGCACGTGTAGCG | -0.08 kcal/mol
